# According to the supplement of paper PMC3334620:
# Whole data set: some 33,000 sequences, median “E-score (-0.5 to 0.5)” near -0.016, cut for the highest 2% near 0.31. Some of the results follow.
# Target: Cst6 (UniProt P40535)
# Assay: PBM E-score (8-mer binding enrichment) (E-score (-0.5 to 0.5)); higher = stronger / more preferred TF binding; most listed sequences are background and not binding sites
# Conditions: protein concentration: 200 nM; construct: GST-DNA-binding domain
# Method in brief: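 Each ungapped eight-base word and its reverse complement, pooled, received an E-score from the Universal PBM Analysis Suite. Underlying scans, normalised with masliner, recorded fluorescent anti-GST bound to GST-tagged yeast transcription factors. These were applied at about 100-200 nM to universal all-10-mer Agilent arrays double-stranded by primer extension.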
row,Sequence,PBM E-score
1,TGCGCACA,-0.0758
2,TACTAGTA,0.262
3,ATATTACC,0.248
4,GCCCCTTA,-0.246
5,ACTCTTCG,-0.156
6,GCCCTAAA,-0.202
7,ACCAAACG,-0.00397
8,GAGTTTAC,0.0471
9,ACTCCAGT,-0.162
10,CTACTGTC,-0.144
11,ACTAACAT,0.231
12,AGTACGAG,-0.0146
13,AACGGCGT,0.265
14,CGACTTAG,-0.0693
15,GCTAACTA,0.106
16,AATCGAAA,0.159
17,CTCATGTA,0.162
18,GCAACGAC,0.0229
19,AAAGCGGG,-0.165
20,TATAGAGA,0.0625
21,CGCGACTC,-0.121
22,CGTGACAC,0.188
23,AGCAGATG,-0.0323
24,CCATTTCA,-0.0394
25,CGATTACG,0.349

row,Sequence,PBM E-score
1,ATATCGAC,0.167
2,CGTATTCA,0.134
3,ATACCAGC,-0.138
4,AGGTTGAT,-0.119
5,ATTTGAAG,-0.107
6,GACCTACC,-0.212
7,CCGACTCA,-0.248
8,CAAGAGTA,0.0196
9,GAGACCAC,0.00825
10,CGATCGGA,-0.171
11,AGTTTGTA,0.0653
12,ACAACTTC,0.131
13,CGGCCTCA,-0.0129
14,GAATTAGA,0.167
15,ACACTTTG,0.066
16,GCTGCAAA,0.166
17,TTATGAAA,0.259
18,AGCTCGTC,-0.101
19,GACTATCC,-0.213
20,ATTAGTAG,0.0988
21,CTCCCATC,-0.0972
22,AACAACTT,0.122
23,GCCACGGA,-0.087
24,CAGAGACA,-0.19
25,ACACCTCT,-0.0751

row,Sequence,PBM E-score
1,CCGGGTAC,-0.237
2,CTCACCCA,-0.104
3,CCGCAAAA,0.0318
4,ATTAGACC,-0.184
5,GTGGGAAA,-0.0404
6,CAACGACC,-0.109
7,AGGACCCC,-0.298
8,CGGGCCCA,-0.189
9,CCGATTCA,-0.0604
10,AACCCGAA,0.0157
11,TGCTACCA,-0.127
12,CTACACTC,-0.213
13,ACCTCTTG,-0.109
14,TAGCACGA,-0.0254
15,AACCCTCT,-0.384
16,AGCCTAGC,-0.167
17,AGACCCGA,0.0255
18,CCGCGTCA,0.34
19,AATCGAAG,0.161
20,CAATCCTG,0.165
21,CACTCCGG,0.0286
22,ATGGCTGA,0.0564
23,CGCCGGAC,-0.164
24,ATTTGCGG,-0.0222
25,CCGATGCC,-0.0671

row,Sequence,PBM E-score
1,TAGCGAGA,-0.0782
2,GATGGGTA,-0.101
3,AAAGTGGC,0.00035
4,GCTCATAA,0.039
5,ATCAGGTC,-0.0391
6,AATAATCG,0.179
7,AGTGTCCC,-0.101
8,ACGGATAC,0.115
9,CTTTGACA,0.113
10,CACCAGCC,-0.172
11,CTTCGCAA,0.00607
12,GGGCCATA,-0.121
13,TATAGCGA,-0.0313
14,AAACATGA,0.201
15,TCTCTTAA,0.115
16,ACCGGTAG,-0.305
17,GGCCTGGA,-0.234
18,CACAAGTC,-0.0346
19,CCGTCCCA,-0.0496
20,ATGATAAT,0.279
21,ATGCTCGA,-0.00115
22,GCCCAGCA,-0.219
23,AGTGAGAG,-0.0695
24,CAGAGACG,-0.0161
25,AGATAACC,-0.11

row,Sequence,PBM E-score
1,ACTACCAA,-0.00043
2,ACCGCGGA,-0.0753
3,AGCTTTAC,-0.163
4,AGGAAGAA,-0.175
5,GAAAGAAC,0.0777
6,ACGGGGAC,-0.225
7,CGTTGACA,0.111
8,ACGTTTGA,0.243
9,GCCAGAAC,-0.187
10,CTTGGCAC,-0.0923
11,CGGGTAGC,-0.151
12,ATATAGCC,0.143
13,CTTGGCCA,-0.14
14,ATCTTCCA,-0.0815
15,CGGTTGTC,0.0183
16,GCGACTAA,0.0201
17,GCCTGTAA,-0.231
18,ATATCTAC,0.0837
19,AGCTCGAC,-0.0154
20,CCCAGGCC,-0.304
21,ATTACCTA,0.177
22,AGTTATAG,0.104
23,CGATTAGA,0.0971
24,GGTACCTA,-0.118
25,AGACTAGG,-0.143

row,Sequence,PBM E-score
1,ATCTTAGG,-0.0319
2,AACCTCGT,0.028
3,CCCACAGA,-0.116
4,GTGGTGGA,-0.186
5,ATCAGATA,0.0136
6,CGGATAGA,0.122
7,GACTAAAC,-0.0697
8,CAAGCGTG,0.00047
9,TCTATACA,-0.118
10,GAAAGATA,0.191
11,GGTGGCCA,-0.129
12,AATCCGAC,-0.0562
13,CGTACTAA,0.222
14,AGTGGGCG,-0.0507
15,CGACTGAA,-0.128
16,CTGTACTC,-0.312
17,ACCCCCCA,-0.301
18,CGCTCCGA,-0.114
19,ACAATGGA,0.043
20,ACGCTTCC,-0.0471
21,GGACTCGA,-0.158
22,TACCACGA,-0.0545
23,CGAAGCTC,-0.235
24,ATACGGTC,-0.0142
25,ATTGCGCA,-0.0485

row,Sequence,PBM E-score
1,ATTGGTTC,0.145
2,AGACAGAG,-0.0196
3,ATGCAGCC,0.0192
4,CGGAATGA,0.0862
5,AAGCGAGG,-0.205
6,CGACACAC,0.0466
7,CAAAACCG,0.0918
8,GATCGAGA,-0.0742
9,GATATATA,0.304
10,CGCTATGC,0.0733
11,TGCTCTAA,0.0796
12,AGGCGCAG,-0.146
13,CGGCAACC,-0.0677
14,AGGGAAAT,-0.0653
15,ACTACTTC,-0.107
16,CAGTCTAC,-0.271
17,GACCGCTA,-0.173
18,TAACATAA,0.272
19,CCTTCATC,-0.228
20,GGTATAAA,0.102
21,GAATGCTA,-0.0649
22,GGCTTCTA,-0.0454
23,ACACCACC,-0.18
24,GCCATTCC,-0.0999
25,ATTCTGTG,0.125

row,Sequence,PBM E-score
1,AGGATTGA,0.128
2,CTGGGCGC,-0.154
3,ACCCAATC,-0.0536
4,AGAACCAA,-0.0417
5,GACTGGCA,-0.256
6,AGCAATCG,0.0985
7,CAATTGGG,-0.0413
8,GAGTGATA,0.128
9,AACGCCAA,0.15
10,ATGGCCGG,-0.331
11,CCCGCTCA,-0.0513
12,AGAAGGAG,-0.231
13,AGTGTGGC,-0.042
14,ATGTGGCC,-0.174
15,CATTCCAG,-0.0492
16,GGAACCCA,-0.264
17,CCTTCGCG,-0.151
18,CGCATGGA,-0.255
19,CATTATGG,-0.157
20,ATCTTGTC,0.16
21,CTCTCTGA,-0.163
22,CTAACCGA,-0.128
23,CATTGTTA,0.188
24,AAATCTTA,0.211
25,CTTTCGTC,0.175

row,Sequence,PBM E-score
1,CTGACATA,0.324
2,ACTATTCG,0.0539
3,CGGCACTA,0.209
4,CCGCATAA,0.221
5,CCAAGAAG,0.00152
6,GCCGACGA,-0.14
7,ACGTAGAC,0.0579
8,CGATTCGC,-0.0221
9,ACAGTAGC,-0.145
10,GATTGCAA,0.00256
11,AGATGCGC,-0.0257
12,ACTATAAC,0.067
13,CGAACTAC,0.00996
14,CTGAGAGC,-0.0922
15,AGAGGTCC,-0.238
16,CTCATCCA,0.0578
17,TTGGGAAA,0.14
18,ATCTTACA,0.168
19,CCCGGTAG,-0.265
